Reference: the supplement of paper PMC8512760
The other results are listed elsewhere or left out. Single values are uncertain, as repeats are few or missing.

Assays:
Assay in all cases: cell viability relative to vehicle (% of vehicle); basal-like triple-negative breast cancer lines; higher = less cytotoxic
Conditions in all cases: 10 µM; 72 h
HCC-1143 = tested on: HCC-1143
HCC-1187 = tested on: HCC-1187
MDA-468 = tested on: MDA-468
SUM-149 = tested on: SUM-149
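Further: stably firefly luciferase-GFP labeled cells in 96-well plates, viability read as luciferase photon flux after d-luciferin addition, treated wells normalized to vehicle wells, single-dose high-throughput screen.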

| SMILES | cell viability (HCC-1143) | cell viability (HCC-1187) | cell viability (MDA-468) | cell viability (SUM-149) |
| --- | --- | --- | --- | --- |
| Nc1nc(=O)c2c(CCc3ccc(C(=O)NC(CCC(=O)[O-])C(=O)[O-])cc3)c[nH]c2[nH]1.[Na+].[Na+] (stereo unspecified) [Pemetrexed] | 66.6 | 90.7 | 62 | 81.5 |
| CCC1(O)CC2CN(CCc3c([nH]c4ccccc34)C(C(=O)OC)(c3cc4c(cc3OC)N(C)C3C(O)(C(=O)OC)C(OC(C)=O)C5(CC)C=CCN6CCC43C65)C2)C1.O=S(=O)(O)O (stereo unspecified) [Vinblastine sulfate] | 62.6 | 55.5 | 116 | 108 |
| Cc1nc2n(c(=O)c1CCN1CCC(c3noc4cc(F)ccc34)CC1)CCCC2O (stereo unspecified) [Paliperidone] | 78.4 | 94.3 | 127 | 97 |
| NC(=O)NN=Cc1ccc([N+](=O)[O-])o1 [Nitrofurazone] | 106 | 136 | 99.1 | 97.5 |
| COC(=O)C(c1ccccc1Cl)N1CCc2sccc2C1.O=S(=O)(O)O (stereo unspecified) [Clopidogrel] | 87.6 | 99.8 | 88.6 | 119 |
| COc1ncc(-c2ccc3nccc(-c4ccnnc4)c3c2)cc1NS(=O)(=O)c1ccc(F)cc1F | 61.9 | 64.4 | 58.9 | 45 |
| Cl.N=C(N=C(N)N)N1CCOCC1 [Moroxydine HCl] | 75.4 | 102 | 107 | 100 |
| CC(C)(C)NCC(O)COc1cccc2c1CCC(O)=N2.Cl (stereo unspecified) [Carteolol HCl] | 86.5 | 106 | 140 | 117 |
| Cc1nnc(SCC2=C(C(=O)[O-])N3C(=O)[C@@H](NC(=O)Cn4cnnn4)[C@H]3SC2)s1.[Na+] [Cefazolin (sodium salt)] | 109 | 106 | 108 | 82.2 |
